Reference: publication PMC4336329 (PLoS ONE, 2015)
Out of some 310,000 compounds screened, about 2,200 (0.71%) showed an effect of 50% or more. Effects have a minus sign here. The list shows a part of the results.

Target: human ether-à-go-go-related gene (hERG) potassium channel (human, UniProt Q12809)
Experiment: primary screen, population patch clamp on CHO cells stably expressing hERG

Chain of human ether-à-go-go-related gene (hERG) potassium channel (Q12809 whole entry, looked up): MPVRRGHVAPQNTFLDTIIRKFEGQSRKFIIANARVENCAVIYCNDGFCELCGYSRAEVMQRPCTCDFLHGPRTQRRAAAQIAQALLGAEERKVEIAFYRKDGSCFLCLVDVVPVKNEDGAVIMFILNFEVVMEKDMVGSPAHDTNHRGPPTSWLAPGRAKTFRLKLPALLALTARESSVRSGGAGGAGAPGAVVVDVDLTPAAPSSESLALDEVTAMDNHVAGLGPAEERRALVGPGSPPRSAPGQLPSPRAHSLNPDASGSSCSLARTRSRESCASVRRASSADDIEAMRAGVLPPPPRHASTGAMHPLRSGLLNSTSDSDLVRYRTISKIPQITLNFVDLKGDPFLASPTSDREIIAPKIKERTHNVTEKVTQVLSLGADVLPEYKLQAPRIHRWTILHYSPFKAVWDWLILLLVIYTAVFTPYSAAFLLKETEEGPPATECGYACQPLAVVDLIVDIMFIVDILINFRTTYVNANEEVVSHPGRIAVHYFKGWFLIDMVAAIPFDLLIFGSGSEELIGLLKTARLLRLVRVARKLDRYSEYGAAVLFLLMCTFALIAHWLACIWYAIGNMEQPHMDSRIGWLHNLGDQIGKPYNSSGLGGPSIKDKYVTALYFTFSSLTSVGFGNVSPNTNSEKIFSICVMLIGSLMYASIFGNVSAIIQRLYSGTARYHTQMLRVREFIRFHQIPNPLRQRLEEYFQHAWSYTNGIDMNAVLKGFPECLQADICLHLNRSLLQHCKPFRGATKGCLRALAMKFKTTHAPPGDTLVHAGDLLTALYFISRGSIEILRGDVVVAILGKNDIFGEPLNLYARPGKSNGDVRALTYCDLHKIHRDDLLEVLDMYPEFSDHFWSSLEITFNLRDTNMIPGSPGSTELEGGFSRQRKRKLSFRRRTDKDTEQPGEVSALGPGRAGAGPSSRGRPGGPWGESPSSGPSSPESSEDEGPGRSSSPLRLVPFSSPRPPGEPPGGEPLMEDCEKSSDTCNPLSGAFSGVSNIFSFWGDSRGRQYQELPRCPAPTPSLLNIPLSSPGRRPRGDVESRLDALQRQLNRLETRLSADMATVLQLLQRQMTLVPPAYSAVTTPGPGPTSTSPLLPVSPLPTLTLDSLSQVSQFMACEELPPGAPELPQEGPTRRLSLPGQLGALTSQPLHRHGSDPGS

Row | Compound | hERG current change (%, negative = inhibition) at 1uM [%]
1 | CCOC(=O)C1CCN(S(=O)(=O)c2c(C)[nH]c(=O)[nH]c2=O)CC1 | 1.35
2 | COc1cc(C(C)=O)ccc1COc1ccc(C(=O)O)cc1OC | 3.24
3 | COc1ccc(NC(=O)c2ccc(Br)c(S(=O)(=O)N3CCOCC3)c2)cc1 | 10.6
4 | COCCN(C(=O)COC(=O)CCCOc1ccccc1)c1c(N)n(Cc2ccccc2)c(=O)[nH]c1=O | 7.67
5 | CCCCCn1c(=S)[nH]c2cc(C(=O)N3CCCC3)ccc2c1=O | 6.03
6 | Cc1cccc2cc(CN(C(=O)c3cccs3)c3ccccc3)c(=O)[nH]c12 | 14.5
7 | O=C(NCc1ccc2c(c1)OCO2)Oc1ccccc1 | -0.322
8 | COc1ccc(Cl)cc1C(=O)NNC1CC(=O)N(Cc2ccc(Cl)cc2)C1=O (stereo not shown) | -5.98
9 | O=C(COC(=O)CCC1CCCC1)Nc1ccc(Cl)cn1 | 13.6
10 | OCCC1CN(Cc2cc3c(cc2Cl)OCO3)CCN1Cc1ccccc1 (stereo not shown) | -1.48
11 | COc1ccc(-c2csc(NC(=O)CSCC(=O)Nc3cc(C)on3)n2)cc1 | 10.1
12 | O=C(OC(C(=O)Nc1cc(Cl)cc(Cl)c1)c1ccccc1)C1=COCCO1 (stereo not shown) | 10.2
13 | CN(C)c1ccc(/C=C2\N=C(C(C)(C)C)OC2=O)cc1 | 18.7
14 | O=C(CCCNC(=O)/C(=C/c1ccc(F)cc1)NC(=O)c1ccccc1)OCc1ccccc1 | -38.3
15 | O=C1/C(=C/c2cccs2)CCC/C1=C\c1cccs1.O=S(=O)(O)O | 10.2
16 | O=C(NC(=S)NCc1ccccc1)c1cccc([N+](=O)[O-])c1 | -6.34
17 | O=C(N/N=C/c1cccs1)c1cc(C2CC2)nc2ccccc12 | 6.16
18 | O=C(NC1CCCCCC1)c1ccc(CS(=O)Cc2ccccc2Cl)o1 (stereo not shown) | 11.9
19 | CC(C)n1nc(C(=O)Nc2cccc(S(=O)(=O)N3CCCCC3)c2)c2ccccc2c1=O | 7.59
20 | CCOc1ccc(N=C2NC(=O)C(CC(=O)Nc3ccccc3)S2)cc1 (stereo not shown) | 8.01
21 | CCOC(=O)CSc1nc2cc(C(=O)OC)ccc2c(=O)n1CCN1CCOCC1 | -11.4
22 | COc1cccc(NC(=O)C(=O)NCCCn2ccnc2)c1 | 10.3
23 | COc1ccc(NC(=O)c2ccccc2NC(=O)c2ccccc2)cc1 | 13.7

Row | Compound | hERG current change (%, negative = inhibition) at 1uM [%]
24 | COC(=O)Cn1c(CN2CCC(Cc3ccccc3)CC2)nc2c1c(=O)n(C)c(=O)n2C | 6.77
25 | CCN(CC)C(=O)C1CCCN(c2ccccc2[N+](=O)[O-])C1 (stereo not shown) | -0.0822
26 | C=CCN(c1ccccc1)S(=O)(=O)c1cccc(C(=O)O)c1 | 12.2
27 | CC(C)C(=O)Nc1ccc([N+](=O)[O-])c(C(F)(F)F)c1 | 1.83
28 | Cc1csc(SCC(=O)O)n1 | 9.44
29 | CC(C)CN(C(=O)COC(=O)c1ccccc1Sc1ccccc1C#N)C1CCS(=O)(=O)C1 (stereo not shown) | 18.1
30 | COc1ccc(N2CCN(C(=O)c3ccc(-c4nc5ccccc5s4)o3)CC2)cc1 | -0.0373
31 | COc1ccc2[nH]cc(CCN)c2c1 | 15.1
32 | O=C(c1ccccc1)N1CCN(C2C3CC4CC(C3)CC2C4)CC1 (stereo not shown) | 6.35
33 | Cn1c(N)c(C(=O)COC(=O)CCc2nc3ccccc3s2)c(=O)n(C)c1=O | 19.5
34 | Cc1c(C(=O)Nc2ccccc2F)sc2ncn(CC(=O)N3CCCCC3)c(=O)c12 | 25.2
35 | C=CCN(CC(O)c1cccc([N+](=O)[O-])c1)C(C)CCc1ccccc1.Cl (stereo not shown) | -9.83
36 | N#Cc1cc2c(nc1SC1CCCCC1O)CCCC2 (stereo not shown) | 1.44
37 | CCc1n[nH]c(=S)n1/N=C/c1ccc(NC(C)=O)cc1 | 7.25
38 | O=C1CNC(=S)N1Cc1ccccc1Cl | 1.25
39 | CS(=O)(=O)N(CC(=O)N1CCN(Cc2ccc3c(c2)OCO3)CC1)Cc1ccc(Cl)cc1 | -4.49
40 | Cn1c(=O)c([N+](=O)[O-])c(NCc2ccc3c(c2)OCO3)c2ccccc21 | 4.69
41 | Cc1c(C(=O)NNC(=O)c2ccncc2)oc2ccc(Br)cc12 | -31
42 | Nc1ncnc(Nc2cccc(Cl)c2Cl)n1 | 12.2
43 | COc1ccnc2c1c(=O)n(Cc1ccccc1Cl)c(=O)n2C | 12.8
44 | CCOC(=O)C1=C(C)NC(=O)NC1c1ccc(F)cc1 (stereo not shown) | 13.3
45 | COc1cccc(NC(=O)c2ccccc2-c2ccccc2C(=O)O)c1 | 15
46 | Cc1cnc(NC(=O)c2ccc(-c3ccc([N+](=O)[O-])cc3)o2)s1 | 16.4
